Reference: ChEMBL document CHEMBL4888484, “Replenishing the malaria drug discovery pipeline: Screening and hit evaluation of the MMV Hit Generation Library 1 (HGL1) against asexual blood stage Plasmodium falciparum ,using a nano luciferase reporter read-out” (2022)
Screen size: about 150,000 compounds; about 540 (0.36%) showed an effect of 50% or more. This is one part of the list.

System: Plasmodium falciparum
Assay: Primary screen in NF54 nanoGlo assay, in single point, at 2uM, 72h; a lower Z score goes with more inhibition
Assay type: functional, Erythrocyte
Conditions: timepoint 72 hour

| SMILES | % Inhibition [%] | Z score |
| --- | --- | --- |
| Cc1cc([C@]2(C)NC(=O)N(Cc3cccc(C(N)=O)c3)C2=O)c(C)o1 | -5 | 0.83 |
| Cc1c(Cl)cc(C(=O)N(C)C[C@H]2COCCO2)cc1Cl | 9 | -1.63 |
| Cn1cccc1C(=O)NC1CC1c1ccc(F)cc1F (stereo unspecified) | -3 | 0.53 |
| Cc1ccc(OCCOCCN(C)C)cc1 | -2 | 0.26 |
| O=C(c1csc(C(F)(F)F)c1)N1CCn2c(n[nH]c2=O)C1 | -2 | 0.28 |
| O=C(c1ccc(Cl)cc1)N(CC(=O)N1c2ccccc2-n2cccc2[C@H]1c1cccc(Cl)c1)C1CC1 | -6 | 1.2 |
| CCC1CCCCN1CCN1C(=O)[C@@H]2C(C(=O)Nc3cccc(C)c3)[C@@H]3C=C[C@]2(O3)C1C(=O)NC1CCCC(C)C1C (stereo partly specified) | 4 | -0.61 |
| Cc1n[nH]c(N2CCN(C(=O)CC3CC4CCC3C4)CC2)n1 (stereo unspecified) | 3 | -0.63 |
| Cc1ccc(-n2ccnc2)c(C(=O)NCc2cnc3n2CCCC3)c1 | 2 | -0.34 |
| CCn1cc(-c2cc(C(=O)N3CCC[C@H](C)C3)c3ccc(C)c(C)c3n2)cn1 | 3 | -0.42 |
| OC1(C(F)(F)F)C2CCCCC2=NN1c1nc(-c2ccncc2)cs1 (stereo unspecified) | -35 | 4.16 |
| O=C1CCCN1c1cc(CNS(=O)(=O)c2ccc(-n3cccn3)cc2)ccn1 | -23 | 3.52 |
| CS(=O)(=O)NCc1ccc(C(=O)NC[C@H]2CCC[C@@H](CO)C2)o1 | -33 | 3.91 |
| CC(C)(C)OC(=O)NCCC[C@H](NCCCO)c1ccccc1 | 1 | -0.12 |
| CCN(Cc1ccc(OC)cc1)Cc1cc(=O)c2cc(F)ccc2[nH]1 | -12 | 2.04 |
| CCn1c(CN2CCCN(C(N)=O)CC2)nc2cc(F)ccc21 | -3 | 0.61 |
| Cc1nc(C(=O)N2CC[C@]34C(=O)N(Cc5cn(nn5)CCCOc5cccc(c5)[C@H]23)c2ccccc24)c[nH]1 | -9 | 1.74 |
| O=C(CCC(F)(F)F)N1CCN(Cc2nnc[nH]2)CC1 | 5 | -1.08 |
| CC#CCN1CCOC(C(C)NC(=O)OC(C)(C)C)C1 (stereo unspecified) | -5 | 0.96 |
| COCCNC(=O)C[C@H](c1ccc(OCc2ccccc2)c(OC)c1)c1cn(Cc2ccc(F)cc2)c2ccccc12 | -12 | 1.54 |
| O=C(Nc1cccc(Br)c1)N1CCN(c2nc3cc(F)ccc3n3cccc23)CC1 | 3 | -0.59 |
| CC(=O)NCCCN(C)c1ncccc1-c1nc(C)no1 | -12 | 2.21 |
| CCOC(=O)[C@H]1CCCC[C@H]1NS(=O)(=O)C1CC1 | -12 | 2.27 |
| Cn1c(=O)c(-c2nc(-c3ccc(Br)cc3)no2)c(O)c2ccc(F)cc21 | -10 | 1.32 |
| CCOC(=O)c1noc2nc(C)nc(NC(C)C)c12 | -10 | 1.82 |
| Cc1cccnc1[C@H](C)NC(=O)c1coc(COc2cccc3cccnc23)n1 | -13 | 1.65 |
| CC[C@H](NC(=O)c1cc(Cn2cccn2)on1)c1nnc[nH]1 | -2 | 0.39 |

| SMILES | % Inhibition [%] | Z score |
| --- | --- | --- |
| CCCc1noc(Cn2cncc(Br)c2=O)n1 | 4 | -0.62 |
| CC(C)C(=O)c1ccc2c(c1NC(=O)Cc1ccccc1)OCCO2 | -9 | 0.89 |
| Cc1nc(C(=O)N2CCC(COc3cc(Cl)cc(Cl)c3)CC2)c[nH]1 | -12 | 2.23 |
| Cc1c(CNC(=O)c2cc3[nH]cnc3cc2F)cnn1C | -10 | 1.05 |
| CC1CCC(C(C)C)C(OC(=O)Nc2ccccc2)C1 (stereo unspecified) | 1 | -0.21 |
| Cc1csc(Nc2ccc(NC(=O)CCc3cscn3)cc2)n1 | -15 | 2.19 |
| CNc1nc(C)cc(-c2ccnc3c2ccn3C)n1 | -5 | 0.6 |
| O=C(Nc1ccc2c(c1)CCC2)[C@@H]1COc2ccccc2O1 | -6 | 0.9 |
| COCc1noc(CCC2CN(C(=O)OC(C)(C)C)C2)n1 | -8 | 1.08 |
| CCn1nc(C)cc1C(=O)O[C@@H](C)c1nc2ccccc2n1C | -7 | 1.02 |
| CCc1c(C(=O)N2CC[C@H](n3cc(C)cn3)C2)cnn1CCC(C)C | -11 | 1.42 |
| COc1ccc(-n2cccn2)c(CN2CCC[C@H](c3nc(C)n[nH]3)C2)c1 | 3 | -0.49 |
| Cc1ccc(-n2nnnc2CNS(=O)(=O)c2cccnc2)cc1 | -11 | 2.23 |
| CN(C)[C@H]1CN(c2nc3c(cc2C(=O)O)CCC3)C[C@@H]1C1CC1 | 0 | 0.01 |
| Cc1noc(-c2cccnc2N2CC[C@H](N3CCCC3)C2)n1 | -1 | 0.17 |
| COC(=O)[C@@H](NCc1ccc(C(N)=O)cc1)C(C)(C)C | -2 | 0.25 |
| Cc1nc(C)c(COc2ccc(-n3cncn3)cc2)s1 | -5 | 0.61 |
| COc1cccc(CNC[C@H](c2ccnn2C)C(C)C)n1 | -6 | 0.73 |
| CCOC(=O)C1CCN(C(=O)CN2C(=O)N[C@](C)(c3ccc(F)cc3F)C2=O)CC1 | -5 | 0.82 |
| NC(=O)[C@@H]1Cc2ccccc2N1Cc1nc(CC(F)(F)F)no1 | 26 | -2.96 |
| COc1ccc(-c2cc(N)nc(N3CCCC3)n2)cc1F | -5 | 0.71 |
| Cc1cc(OCC(=O)Nc2ccc(N(C)C)nc2)no1 | -8 | 1.07 |
| Cc1cccc(OCc2nc(C)c(C(=O)NC3CCCCC3)s2)c1 | 0 | 0.01 |
| COc1ccc(-c2cnc3ncnn3c2N2CCCN(S(=O)(=O)c3cc(F)cc(F)c3)CC2)cc1OC | -9 | 0.91 |
| CCc1cccc(NC(=O)c2cn(Cc3ccc(NC(=O)c4ccc(C)c(C)c4)cc3)cn2)c1 | -16 | 1.9 |
| Cc1ccc(-n2nnnc2-c2cnc3cc4c(cc3c2C)OCO4)cc1 | 34 | -4.36 |
